According to PubChem BioAssay AID1259407 (Chemical Carcinogenesis Research Information System (CCRIS), 2018):
Entries after “also recorded” stand apart in the source; their conditions may differ. Some entries of the source have several records that differ or are many. The other results are left out here. No rule for the calls is given here. There may be further records. Results that share an entry do not match, cause unknown; some may be repeats, others may stem from another dose, organism or construct than stated. What stands in brackets tells the records apart. The letters are not those of the source and start again with each entry. Signs of the kind (2×) stand for listed records that agree.

Tested on: CCRIS mutagenicity, Ames/micronucleus/aberration tests
Assay: CCRIS mutagenicity studies
[1] = Test System: AMES SALMONELLA TYPHIMURIUM, Strain/Indicator: TA100, Metabolic Activation: RAT, LIVER, S-9, Method: PREINCUBATION

## O=NN1CCCCC1
Test System: AMES SALMONELLA TYPHIMURIUM, Strain/Indicator: TA100, Metabolic Activation: PIG, LIVER, S-9, Method: PREINCUBATION
  mutagenic call: inactive; negative [study A] and active; positive [study B]
[1]
  mutagenic call: inactive; negative [study A] and active; positive [study B]
Test System: MOUSE LYMPHOMA, Strain/Indicator: L5178Y (TK+/TK-), Metabolic Activation: NONE, Method: SUSPENSION/PLATE
  mutagenic call: inactive; negative [study A]; also recorded: inactive; negative. reevaluation of results: negative [study B]
Test System: MOUSE LYMPHOMA, Strain/Indicator: L5178Y (TK+/TK-), Metabolic Activation: RAT, LIVER, S-9, AROCLOR 1254, Method: SUSPENSION/PLATE
  mutagenic call: active; positive [study A]; also recorded: active; positive. reevaluation of results: positive [study B]; also recorded: active; positive [study C]

## c1ccc2c(c1)ccc1[nH]c3ccc4ccccc4c3c12
Test System: AMES SALMONELLA TYPHIMURIUM, Strain/Indicator: TA100, Metabolic Activation: RAT, LIVER, S-9, 3-METHYLCHOLANTHRENE, Method: STANDARD PLATE
  mutagenic call: inactive; negative [study A] and active; positive [study B]
Test System: AMES SALMONELLA TYPHIMURIUM, Strain/Indicator: TA100, Metabolic Activation: RAT, LIVER, S-9, AROCLOR 1254, Method: STANDARD PLATE
  mutagenic call: active; positive [study A] and inactive; negative [study B]
Test System: AMES SALMONELLA TYPHIMURIUM, Strain/Indicator: TM677, Method: PREINCUBATION
  mutagenic call: inactive; negative and active; positive

## CN(C)c1ccc(N=Nc2ccccc2)cc1
Test System: AMES SALMONELLA TYPHIMURIUM, Strain/Indicator: TA100, Metabolic Activation: RAT, LIVER, S-9, AROCLOR 1254 (10%), Method: PREINCUBATION
  mutagenic call: inactive; negative and active; positive

## c1ccc(Nc2ccc(Nc3ccccc3)cc2)cc1
End Point: IN VITRO CHROMOSOMAL ABERRATIONS, Test System: CHINESE HAMSTER LUNG CELLS (CHL), Metabolic Activation: NONE
  mutagenic call: active; positive (structural changes); also recorded: active; positive (structural changes); authors report results as equivocal

## CN(C)N=O
End Point: IN VITRO CHROMOSOMAL ABERRATIONS, Test System: CHO CELLS, Metabolic Activation: RAT, LIVER, S-9, AROCLOR 1254
  mutagenic call: inactive; negative (2×) and active; positive
Test System: AMES SALMONELLA TYPHIMURIUM, Strain/Indicator: TA100, Metabolic Activation: MOUSE, LIVER, S-9, Method: PREINCUBATION
  mutagenic call: inactive; negative [study A] and active; positive [study B]
[1]
  mutagenic call: active; positive [study A] and inactive; negative [study B] and inactive; negative [study C]

## O=[N+]([O-])c1ccc(Cl)cc1
End Point: IN VITRO CHROMOSOMAL ABERRATIONS, Test System: CHINESE HAMSTER OVARY CELLS, Metabolic Activation: NONE
  mutagenic call: inactive; negative; also recorded: active; positive; precipitation occurred at 900 ug/ml
End Point: IN VITRO CHROMOSOMAL ABERRATIONS, Test System: CHINESE HAMSTER OVARY CELLS, Metabolic Activation: RAT, LIVER, S-9, AROCLOR 1254
  mutagenic call: inactive; negative; precipitation occurred at 5000 ug/ml; also recorded: active; positive

## CC(C)(Oc1ccc(C2CCCc3ccccc32)cc1)C(=O)O (centres undefined)
End Point: IN VITRO CHROMOSOMAL ABERRATIONS, Test System: RAT HEPATOCYTES, Metabolic Activation: NONE
  mutagenic call: active; positive; at highest concentration; also recorded: active; positive
End Point: IN VITRO MICRONUCLEUS, Test System: RAT HEPATOCYTES, Metabolic Activation: NONE
  mutagenic call: inactive; negative and active; positive

## [O-]/[N+](=N\O)c1ccccc1
Test System: AMES SALMONELLA TYPHIMURIUM, Strain/Indicator: TA98, Metabolic Activation: HAMSTER, LIVER, S-9, Method: STANDARD PLATE
  mutagenic call: inactive; negative [1 to 100 µg/plate] and active; positive [10 to 1000 µg/plate]
Test System: AMES SALMONELLA TYPHIMURIUM, Strain/Indicator: TA1538, Metabolic Activation: MOUSE, LIVER, S-9, AROCLOR 1254, Method: STANDARD PLATE
  mutagenic call: inactive; negative [0.3 to 1000 µg/plate] and active; positive [1 to 1000 µg/plate]
Test System: AMES SALMONELLA TYPHIMURIUM, Strain/Indicator: TA1538, Metabolic Activation: MOUSE, LIVER, S-9, Method: STANDARD PLATE
  mutagenic call: inactive; negative [0.3 to 1000 µg/plate] and active; positive [1 to 333 µg/plate]
Test System: AMES SALMONELLA TYPHIMURIUM, Strain/Indicator: TA1538, Metabolic Activation: NONE, Method: STANDARD PLATE
  mutagenic call: inactive; negative [0.3 to 333.3 µg/plate] and active; positive [10 to 1000 µg/plate]
Test System: AMES SALMONELLA TYPHIMURIUM, Strain/Indicator: TA1538, Metabolic Activation: RAT, LIVER, S-9, Method: STANDARD PLATE
  mutagenic call: inactive; negative [0.3 to 333.3 µg/plate] and active; positive [10 to 1000 µg/plate]
Test System: E. COLI, Strain/Indicator: WP2 UVRA, Metabolic Activation: HAMSTER, LIVER, S-9, AROCLOR 1254, Method: STANDARD PLATE
  mutagenic call: inactive; negative [0.3 to 1000 µg/plate] and active; positive [1 to 1000 µg/plate]
Test System: E. COLI, Strain/Indicator: WP2 UVRA, Metabolic Activation: RAT, LIVER, S-9, AROCLOR 1254, Method: STANDARD PLATE
  mutagenic call: inactive; negative [0.3 to 1000 µg/plate] and active; positive [1 to 1000 µg/plate]

## ClCCBr
End Point: IN VITRO CHROMOSOMAL ABERRATIONS, Test System: CHL CELLS, Metabolic Activation: NONE
  mutagenic call: active; positive (structural changes) (2×) and inactive; negative
